Data from paper PMC4336329 (PLoS ONE, 2015).
Among all 310,000 compounds or so, about 14,000 (4.5%) showed an effect of 50% or more. The effect is printed as a negative number. The list shows a part of the results.

molecular target: human ether-à-go-go-related gene (hERG) potassium channel (human, UniProt Q12809); assay: primary screen, population patch clamp on CHO cells stably expressing hERG
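Note: peak tail current of the secondary pulse compared with the same well before compound.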

Sequence of human ether-à-go-go-related gene (hERG) potassium channel (Q12809 whole entry, looked up): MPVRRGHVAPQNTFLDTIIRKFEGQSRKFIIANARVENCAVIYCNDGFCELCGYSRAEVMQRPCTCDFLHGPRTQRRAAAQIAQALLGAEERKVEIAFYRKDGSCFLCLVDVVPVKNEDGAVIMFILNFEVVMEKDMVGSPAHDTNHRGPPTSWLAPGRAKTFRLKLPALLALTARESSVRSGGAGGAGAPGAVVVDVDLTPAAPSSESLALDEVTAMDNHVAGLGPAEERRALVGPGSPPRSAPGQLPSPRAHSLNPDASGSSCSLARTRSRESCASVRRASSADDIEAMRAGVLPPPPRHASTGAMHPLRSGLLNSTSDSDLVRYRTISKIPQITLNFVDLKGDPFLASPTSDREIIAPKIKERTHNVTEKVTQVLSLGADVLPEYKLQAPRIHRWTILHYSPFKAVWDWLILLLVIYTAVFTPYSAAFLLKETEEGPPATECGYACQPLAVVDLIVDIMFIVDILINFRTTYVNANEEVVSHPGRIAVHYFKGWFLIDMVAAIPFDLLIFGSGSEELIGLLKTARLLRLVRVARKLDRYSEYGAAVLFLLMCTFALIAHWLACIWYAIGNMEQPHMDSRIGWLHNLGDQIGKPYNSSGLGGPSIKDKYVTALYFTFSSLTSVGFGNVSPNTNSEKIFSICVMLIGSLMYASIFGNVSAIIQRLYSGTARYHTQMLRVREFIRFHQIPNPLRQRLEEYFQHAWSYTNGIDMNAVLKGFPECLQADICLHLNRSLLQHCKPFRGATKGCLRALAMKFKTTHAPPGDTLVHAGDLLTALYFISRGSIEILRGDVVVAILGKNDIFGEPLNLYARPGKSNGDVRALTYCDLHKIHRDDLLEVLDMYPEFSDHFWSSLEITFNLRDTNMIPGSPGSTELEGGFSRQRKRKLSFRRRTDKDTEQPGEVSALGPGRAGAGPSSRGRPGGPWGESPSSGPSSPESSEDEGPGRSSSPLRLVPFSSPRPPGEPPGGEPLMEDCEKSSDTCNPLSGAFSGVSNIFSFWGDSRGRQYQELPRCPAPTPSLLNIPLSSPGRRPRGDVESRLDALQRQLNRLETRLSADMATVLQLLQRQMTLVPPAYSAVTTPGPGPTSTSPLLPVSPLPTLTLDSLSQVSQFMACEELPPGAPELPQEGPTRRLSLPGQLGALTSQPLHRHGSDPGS

Question: For `CN1C(=O)CS/C1=N\NC(=O)COc1cccc2cccnc12`, which “hERG current change (%, negative = inhibition) at 10uM” value is on record?
Answer: 14.6%

Question: With `COc1ccc(OC)c(CCNC(=O)c2ccc(NC3=NC4CS(=O)(=O)CC4S3)cc2)c1` (stereo not drawn) as the compound, how does the “hERG current change (%, negative = inhibition) at 10uM” value read?
Answer: 4.78%

Question: `COC(=O)c1c(NC(=O)Cc2cccs2)sc(C(=O)N2CCCCC2)c1C` was tested. Which “hERG current change (%, negative = inhibition) at 10uM” value did it give?
Answer: 7.1%

Question: With `COc1ccccc1N(CC(=O)NCCSCc1ccccc1)S(=O)(=O)c1ccc(C)cc1` as the compound, how does the “hERG current change (%, negative = inhibition) at 10uM” value read?
Answer: -38.2%

Question: How did the “hERG current change (%, negative = inhibition) at 10uM” value turn out when `O=C(Cc1cccc2ccccc12)Nc1cc(C(=O)O)cc(C(=O)O)c1` was run?
Answer: 23.8%

Question: With `CCCCn1c(N)c(N(CC(C)C)C(=O)c2ccc(S(=O)(=O)N(CC)c3ccccc3)cc2)c(=O)[nH]c1=O` as the compound, how does the “hERG current change (%, negative = inhibition) at 10uM” value read?
Answer: 16.3%

Question: How did the “hERG current change (%, negative = inhibition) at 10uM” value turn out when `Cc1cc(OCC(=O)Nc2cccnc2)c2c(C)c(C)c(=O)oc2c1` was run?
Answer: 19.8%

Question: With `CCCCn1c(N)c(N(CC(C)C)C(=O)C2=NN(c3cc(C)ccc3C)C(=O)CC2)c(=O)[nH]c1=O` as the compound, how does the “hERG current change (%, negative = inhibition) at 10uM” value read?
Answer: 17.4%

Question: For `COc1cccc(-c2nnc(NC(=O)CCS(=O)(=O)c3ccc(C)cc3)o2)c1`, which “hERG current change (%, negative = inhibition) at 10uM” value is on record?
Answer: 11.3%

Question: How did the “hERG current change (%, negative = inhibition) at 10uM” value turn out when `CC(=O)Cc1nsc(NC(=O)c2ccc(-c3cccc(C(F)(F)F)c3)o2)n1` was run?
Answer: -0.688%

Question: Which “hERG current change (%, negative = inhibition) at 10uM” value does the source give for `CCc1cc[n+](-c2nc([O-])sc2C=O)cc1` here?
Answer: -5.1%

Question: `Cc1ccc(-n2nc(-c3ccc(N)cc3)cc2N)cc1` was tested. Which “hERG current change (%, negative = inhibition) at 10uM” value did it give?
Answer: -47.8%

Question: For `COc1ccc2c(CC(=O)O)cc(=O)oc2c1`, which “hERG current change (%, negative = inhibition) at 10uM” value is on record?
Answer: 9.43%

Question: Which “hERG current change (%, negative = inhibition) at 10uM” value does the source give for `Cc1noc(/C=C/N(C)C)c1S(=O)(=O)N1CCCC(C(=O)Nc2ccc(F)cc2F)C1` (stereo not drawn) here?
Answer: 5%

Question: `O=C(CCCNS(=O)(=O)c1cccs1)N1CCN(c2cccc(Cl)c2)CC1` was tested. Which “hERG current change (%, negative = inhibition) at 10uM” value did it give?
Answer: -56.9%

Question: `N#Cc1c(NC(=O)c2ccc(Cn3cc(Br)cn3)o2)sc2c1CCCCC2` was tested. Which “hERG current change (%, negative = inhibition) at 10uM” value did it give?
Answer: 7.39%

Question: With `Cc1cc2ccccc2n2c(SCC(=O)N3CCOCC3)nnc12` as the compound, how does the “hERG current change (%, negative = inhibition) at 10uM” value read?
Answer: 0.857%

Question: `CC(C)CNC(=O)c1cnn2c(C(F)(F)F)cc(C(F)(F)F)nc12` was tested. Which “hERG current change (%, negative = inhibition) at 10uM” value did it give?
Answer: 16.1%

Question: How did the “hERG current change (%, negative = inhibition) at 10uM” value turn out when `COc1ccc(OC)c(S(=O)(=O)N2CCc3ccccc3C2)c1` was run?
Answer: -11%

Question: How did the “hERG current change (%, negative = inhibition) at 10uM” value turn out when `COc1ccc(CNC(=O)c2ccccc2[N+](=O)[O-])cc1` was run?
Answer: -5.73%

Question: With `S=C(NCc1ccccc1)N/N=C/c1cccs1` as the compound, how does the “hERG current change (%, negative = inhibition) at 10uM” value read?
Answer: 19.6%

Question: Which “hERG current change (%, negative = inhibition) at 10uM” value does the source give for `CCOC(=O)C(C(=O)Nc1cccc(C)n1)C1CCCCC1` (stereo not drawn) here?
Answer: -28.8%

Question: Which “hERG current change (%, negative = inhibition) at 10uM” value does the source give for `COc1ccccc1N1CCN(C(=O)COc2ccc(Cl)cc2)CC1` here?
Answer: -68.5%

Question: `O=c1ccc2c(-c3ccccc3S(=O)(=O)O)c3ccc(O)c(O)c3oc-2c1O` was tested. Which “hERG current change (%, negative = inhibition) at 10uM” value did it give?
Answer: 16.5%
